Certain results were filed several times, with different values. This is not the full list of results. The source may hold further records. How the calls were made is not given here. Values that stand side by side are repeated measurements across runs, samples, wells, individuals or studies. Brackets tell where a record comes from. A, B and so on number the origins entry by entry.
These compounds were tested against Peptidyl-prolyl cis-trans isomerase FKBP1A (Homo sapiens) (UniProt P62942) (assay: FKBP12 binders, biophysical, NMR detection (AID 608)). Details: NMR binding, purified FKBP12.
Chain of UniProt P62942 (P62942 whole entry, looked up): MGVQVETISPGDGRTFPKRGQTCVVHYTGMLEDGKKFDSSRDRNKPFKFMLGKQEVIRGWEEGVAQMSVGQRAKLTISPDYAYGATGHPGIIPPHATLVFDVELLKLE
With `Cc1csc(CCc2nc(C)cs2)n1` the Kd was 204 µM [sample A] and inactive [sample B].
For `Cc1cc2ncn(S(=O)(=O)N3CCOCC3)c2cc1C`, the Kd was “inactive: > 4 mM [sample A] and inactive [sample B]”.
`O=S(=O)(N1CCOCC1)n1nnc2ccccc21` was tested, and the Kd was “inactive: > 4 mM [sample A] and inactive [sample B]”.
For `CC(=O)c1cccc(NS(=O)(=O)N2CCCCC2)c1`, the Kd was 25 µM [sample A] and 686 µM [sample B].

— PubChem BioAssay AID608 (Sanford-Burnham Center for Chemical Genomics, 2007)
